Laboratory results taken from ChEMBL document CHEMBL1201862, “PubChem BioAssay data set” (2004).

System: NCI-H322M
Experiment: NCI-60 cell line screen, 48 h

Compound	GI50
C1=N\CCOCC/N=C/c2ccccc2OCc2cccc(n2)COc2ccccc2/1	inactive: > 25 µM
COC(=S)OC1CC(n2cnc3c(N)ncnc32)OC1CO[Si](C)(C)C(C)(C)C (stereo not drawn)	inactive: 21.3 µM
Clc1ccc(Cl)c(/N=N/c2cc3c4c(c2)CCCN4CCC3)c1	inactive: > 10 µM
CC1(C)COC(/C=C/C2=NC(C)(C)CO2)=N1	inactive: 19 µM
COCC1OC(S(=O)(=O)c2ccccc2)C(O)C(OC)C1OC (stereo not drawn)	inactive: > 100 µM
CCN(CC)C(=S)SC(C(=O)Nc1nnc(-c2ccccc2)o1)c1ccccc1 (stereo not drawn)	inactive: 15.6 µM
CCCCCCCCOCC(O)CO (stereo not drawn)	inactive: > 100 µM
C[C@]12CC[C@@H]3c4ccc(O)cc4CC[C@H]3[C@@H]1CC[C@@H]2OP(=O)(O)O	inactive: > 100 µM
O=C1C2c3[nH]c4ccccc4c3[C@@H]3CCCCC3C2C(=O)N1c1ccccc1 (stereo partly drawn)	inactive: 31.8 µM
COc1ccc(CC2(Cc3ccc(OC)cc3)CCOC2=O)cc1	inactive: > 100 µM
O=c1c(-c2ccccc2)c(SCCO)n(-c2ccccc2)c(=S)n1-c1ccccc1	inactive: > 100 µM
C=C1C(=O)OC2CC1C(OC(C)=O)C/C(C)=C/CC/C(C)=C\CCC2(C)O (stereo not drawn)	inactive: 15.2 µM and inactive: 13.6 µM
CCc1cccc(C)c1NC(=O)CC1Sc2ccccc2NC1=O (stereo not drawn)	inactive: 37.8 µM
COc1ccc(C2c3c(-c4ccccc4)nn(-c4ccccc4)c3Oc3ncn(N)c(=N)c32)cc1OC (stereo not drawn)	inactive: 1.95 µM
O=S(=O)(O)c1ccc([Se][Se]c2ccc(S(=O)(=O)O)cc2)cc1	inactive: > 100 µM
CCC(C)[C@@H]1NC(=O)[C@@H]2CCCN2C(=O)C(CC(O)CCl)OC(=O)CCNC(=O)[C@H](C)N(C)C(=O)[C@H](C(C)C)N(C)C1=O (stereo partly drawn) (HELM PEPTIDE1{[CCC(C)[C@H](N[*:1])C(=O)[*:2]].[meV].[meA].[bAla].[O=C(C(CC(O)CCl)O[*:1])[*:2]].P}$PEPTIDE1,PEPTIDE1,1:R1-6:R2$$$V2.0)	inactive: > 100 µM
OCc1cc2c([nH]c3ccccc32)c(C(O)CO)n1 (stereo not drawn)	inactive: > 100 µM
OCCN(C1=NCCN1)/[N+](=C\c1ccccn1)[CH-]c1ccccn1	inactive: > 100 µM
CCOC(=O)c1cn2c(n1)sc1cc([N+](=O)[O-])ccc12	inactive: > 100 µM
COc1cc2nc(-c3cccs3)nc(Nc3cccc(Cl)c3)c2cc1OC	inactive: 34.2 µM
CC(=O)c1[nH]c(Nc2ccc(C)cc2)c(C(=S)Nc2ccccc2)c1N	inactive: 18.1 µM
Cn1nc2n(c1=O)CCCN2	inactive: > 100 µM

Compound	GI50
CCOC(=O)c1nc2cc(F)cc(F)c2[nH]c1=O	inactive: > 100 µM
CCOC(=O)c1c(Nc2ccccc2)sc2cccnc12	inactive: 3.59 µM
COc1ccc2c(c1)CC[C@@H]1C2CC[C@]2(C)C(=O)N(CCN3CCCCC3)C(=O)CC12 (stereo partly drawn)	inactive: 71.6 µM
NC(=O)N1N=C2c3ccccc3SC[C@H]2[C@@H]1c1ccccc1	inactive: 33.5 µM
Cc1cn(C2CC(OP(=O)(O)OCC3OC(n4c[n+]([BH2-]C#N)c5c(=O)[nH]c(N)nc54)CC3O)C(CO)O2)c(=O)[nH]c1=O (stereo not drawn)	inactive: > 100 µM
CC(C)N(C(C)C)S(=O)(=O)CC12CCC(C/C1=N\O)C2 (stereo not drawn)	inactive: > 100 µM
O=C1C(c2c(O)[nH]c3ccc(F)cc23)=Nc2ccccc21	inactive: > 100 µM
N#CS/C(C(Cl)=C(Cl)Cl)=C(/Cl)[N+](=O)[O-]	inactive: 17.7 µM
Cc1ccc(-n2cc(-c3ccc(Cl)cc3)c3c2N=CN2N=C(c4cccs4)NC32)cc1 (stereo not drawn)	inactive: 40.3 µM
O=[N+]([O-])c1cc2no[n+]([O-])c2cc1N1CCCCC1	inactive: 14.9 µM
O=c1cc(-c2ccccc2)[nH]c2cc(F)cc(F)c12	inactive: 30.4 µM
CC[C@@]12CCC(=S)N(CCSc3ccccc3)[C@@H]1c1c(n(S(=O)(=O)c3ccc(OC)cc3)c3ccccc13)CC2	inactive: > 100 µM
Cc1ccc(Cc2n[nH]c(=O)[nH]2)cc1	inactive: > 100 µM
CCCC(=O)OC[n+]1ccc2c(C)c3[nH]c4ccccc4c3c(C)c2c1	active: 0.2 µM
COC(=O)C1(C(C)C)CCc2c(OC)ccc(OC)c2C1=O (stereo not drawn)	inactive: > 100 µM
CCOC(=O)CC[C@@H](NC(=O)c1ccc(N[C@@H]2c3cc4c(cc3C(c3cc(OC)c(O)c(OC)c3)C3C(=O)OC[C@@H]32)OCO4)cc1)C(=O)OCC (stereo partly drawn)	active: 0.181 µM
CCCCCCCCCCCCC(Br)C(=O)NCC(N)=O (stereo not drawn)	inactive: 14.8 µM
N=C(N)N/N=C/c1c(-c2cccc([N+](=O)[O-])c2)nc2n1CCS2	inactive: 21.4 µM
O=C(CN1CCOCC1)c1ccc2[nH]c(=O)oc2c1	inactive: > 100 µM
C[C@]12Cc3cn[nH]c3C(=O)C1CC[C@@H]1C2CC[C@@]2(C)C1CC[C@]2(C)O (stereo partly drawn)	inactive: > 100 µM
COc1cc2c(c3oc(-c4ccc5c(c4)OCO5)c(O)c(=O)c13)CCC(C)(C)O2	inactive: > 100 µM

“And” between values parts separate entries of the source, which are not always exact repeats. Identical values can stand only once.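 Step 1: Grow cells in 96-well plates. Step 2: Expose to compound for 48 hours at 5 concentrations. Step 3: Interpolate endpoints linearly; if unreached, use highest concentration. GI50 is the concentration that inhibits growth by half.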 The source made the active and inactive calls. Rule as the data show it: active = GI50 up to about 1.1 µM and inactive = higher. Peptide text beside a SMILES is read from it.
